This is an account of results in patent US10220090B2, “BCMA Antigen binding proteins” (Amgen Inc., priority 2012, dated 2019).

This series in a line: Differential Scanning Calorimetry (DSC) thermostability. It is filed as physicochemical. The settings on record: second campaign covariance muteins. The text has this: Differential Scanning calorimetry (DSC) was used to compare the thermostability of parent and engineered antibodies. DSC is a thermodynamical tool for direct assessment of the heat energy uptake, which occurs in a sample within a regulated increase or decrease in temperature. DSC is commonly employed to assess the thermal and conformational stability of a protein. The melting temperature of a protein, or of individual domains, can be obtained from the DSC profile, and if the reaction is reversible the thermodynamic parameters of the unfolding can be determined. A protein is considered more thermostable when the Tm (transition temperature) is higher. When thermostability data are compared to other bioanalytical methods, like size exclusion chromatography (SEC), it has been observed that a correlation between greater thermostability (higher Tm) and decreased aggregation. […]
DSC was carried out using a MicroCal™ VP-Capillary DSC system (GE Healthcare, Piscataway, N.J.) equipped with an auto-sampler. The temperature differences between the reference and sample cells are continuously measured, and calibrated to power units. […] The solution reference and protein samples were measured in a 135 μL cell from 20 to 110° C. at a heating rate of 60° C./hour. […] Heat capacity during protein melting was calculated by normalizing over protein concentration.

B1: P71567.3: light chain SEQ ID NO:331, heavy chain SEQ ID NO:332 (antibody)
heavy: EVQLLESGGALVQPGGSLRLSCAASGFTFSSYAMNWVRQAPGKGLEWVSAISVGGGTYYADSVKGRFTISRDNSKNTLYLHVNSLRAEDTAVYYCAKDQVTMVRGVWYYYGLDVWGQGTTVTVSS[omitted - human IgG1 constant region]
light: VIVLIQSPLSLPVTPGEPASISCRSSQSLLHSNGNNYLDWYLQKPGQSPHLLISLGSQRTSGVPDRFSGSGSGTDFTLKISRVEAEDVGFYYCMQALQPPRRFGQGTKLEIKRTVAAPSVFIFPPSDEQLKSGTASVVCLLNNFYPREAKVQWKVDNALQSGNSQESVTEQDSKDSTYSLSSTLTLSKADYEKHKVYACEVTHQGLSSPVTKSFNRGEC
Take B1: the Tm (DSC) was found to be 72.8 °C.

B2: P71568.3: light chain SEQ ID NO:333, heavy chain SEQ ID NO:334 (antibody)
heavy: EVQLLESGGALVQPGGSLRLSCAASGFTFSNYAMNWVRQAPGKGLEWVSAISVGGDTYYADSVKGRFTISRDNSKNTLYLHVNSLSAEDSAVYYCAKDQVTLVRGVWYYYGLDVWGQGTTVTVSS[omitted - human IgG1 constant region]
light: VIVLIQSPLSLPVTPGEPASISCRSSQSLLHSNGNNYLDWYLQKPGQSPHLLISLGSQRTSGVPDRFSGSGSGTDFTLKISRVEAEDVGFYYCMQALQPPRRFGQGTKLEIKRTVAAPSVFIFPPSDEQLKSGTASVVCLLNNFYPREAKVQWKVDNALQSGNSQESVTEQDSKDSTYSLSSTLTLSKADYEKHKVYACEVTHQGLSSPVTKSFNRGEC
Consider B2, for which the Tm (DSC) is 76.6 °C.
